Reference: PubChem BioAssay AID2147 (National Center for Advancing Translational Sciences (NCATS), 2009)
The whole screen tested about 230,000 compounds, of which about 3,600 (1.6%) were called active. The shares of active, inactive and inconclusive entries below differ from those in the screen. Calls come from the whole dose curve; as a rule, active = well fitted inhibition curve with a large enough effect (not every such curve was filed as active); inconclusive = small, poorly fitted or top-dose-only effect, or another doubt; inactive = no such curve, though single readings can be large or run the other way. Where the call is inconclusive, the potency comes from a doubtful curve fit.

biological target: Lysine-specific demethylase 4E (Homo sapiens) (UniProt B2RXH2); experiment: qHTS Assay for Inhibitors of Human Jumonji Domain Containing 2E (JMJD2E); conditions: JMJD2E catalytic domain, FDH-coupled NADH fluorescence (FDH is formaldehyde dehydrogenase); series mostly up to 57.1 µM; activity change, negative = inhibition: at the top concentration
UniProt B2RXH2, sequence (B2RXH2 whole entry, looked up, the tested form may be a part): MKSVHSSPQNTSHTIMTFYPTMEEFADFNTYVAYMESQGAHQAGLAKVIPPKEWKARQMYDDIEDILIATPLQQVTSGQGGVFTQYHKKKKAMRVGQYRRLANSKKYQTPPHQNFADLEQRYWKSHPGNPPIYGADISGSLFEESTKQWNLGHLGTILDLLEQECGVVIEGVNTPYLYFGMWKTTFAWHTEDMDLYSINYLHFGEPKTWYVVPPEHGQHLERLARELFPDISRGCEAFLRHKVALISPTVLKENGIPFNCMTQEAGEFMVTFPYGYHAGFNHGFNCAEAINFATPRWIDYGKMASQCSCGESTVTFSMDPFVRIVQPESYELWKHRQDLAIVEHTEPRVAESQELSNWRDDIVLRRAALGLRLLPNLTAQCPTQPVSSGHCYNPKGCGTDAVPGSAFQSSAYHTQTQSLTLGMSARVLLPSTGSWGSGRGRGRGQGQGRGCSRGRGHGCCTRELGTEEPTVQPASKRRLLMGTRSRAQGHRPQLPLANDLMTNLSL
Note: nearly all actives have a fitted effect of over 50% in size.
Potency is the fitted concentration of half-maximal effect; tags give direction and shape of the fitted curve.
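Throughout, for activity change, negative = inhibition: 0% = wells with enzyme and -100% = buffer wells without enzyme.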

Structure (SMILES) | Potency | activity change, negative = inhibition
COc1ccc(Cc2nc3ccc(S(=O)(=O)N4CCOCC4)cc3[nH]2)cc1OC | inconclusive: 31.6 µM [inhibitor, single point] | –
c1cc2c(cc1Cn1cnnn1)OCO2 | inconclusive: 35.5 µM [inhibitor, single point] | –
CC(=O)Nc1ccc2[nH]c(C)cc(=O)c2c1 | inconclusive: 31.6 µM [inhibitor, single point] | –
CC(=O)Nc1nc(-c2cc([N+](=O)[O-])cs2)cs1 | – | inactive: -0.445%
Cc1ccc(Nc2nc(N3CCOCC3)nc(N3CCOCC3)n2)cc1 | – | inactive: -6.47%
Cn1c(C(=O)N2CCc3ccccc3C2)cc2oc3ccccc3c21 | inconclusive: 39.8 µM [inhibitor, single point] | –
COc1cccc2c1C(=O)O/C2=C/c1ccc2c(c1)OCO2 | inconclusive: 11.2 µM [inhibitor, partial curve] | –
COc1ccccc1NC(=O)COC(=O)[C@@H]1CCCN1C(=O)c1cccs1 | inconclusive: 39.8 µM [inhibitor, single point] | –
Cc1ccc2c(Cl)cc(Cl)c(OCC(=O)NC(=O)NCc3ccco3)c2n1 | – | inactive: -5.03%
COc1cc2ccccc2cc1C(=O)O | inconclusive: 22.4 µM [inhibitor, partial curve] | –
CCCN1CCC(=O)N([C@H](CSc2ccc(OC)cc2)c2ccccc2)CC1 | – | inactive: -15.4%
CCOC(=O)c1c(NC(=O)c2ccccc2)sc2c1CCc1ccccc1-2 | inconclusive: 28.2 µM [inhibitor, partial curve] | –
Cc1ccc(-n2c(C)nc3ncnc(-c4ccccc4)c32)cc1 | inconclusive: 35.5 µM [inhibitor, single point] | –
COc1ccc(OC)c(C2C3=C(N=c4s/c(=C\c5cccc(O)c5)c(=O)n42)c2ccccc2CC3)c1 (centres undefined) | inconclusive: 39.8 µM [inhibitor, single point] | –
CCc1ccc(C2CC(c3cccc(Cl)c3)n3nc(N)nc3N2)cc1 (centres undefined) | inconclusive: 17.8 µM [inhibitor, single point] | –
CC(NC(=O)c1ccc(Br)cc1)c1ccccc1 (centres undefined) | – | inactive: -3.91%
Nc1ccc2c(c1)ncn2CCCn1cnc2cc(N)ccc21 | – | inactive: 7.17%
Cc1ccccc1CNC(=O)c1ccccc1N | inconclusive: 28.2 µM [inhibitor, partial curve] | –
CCn1c(SCC(=O)N2CCN(c3cccc(Cl)c3)CC2)nc2ccccc2c1=O | inconclusive: 39.8 µM [inhibitor, single point] | –
COC(=O)c1ccc2nc(-c3ccc4c(c3)OCO4)cn2c1 | inconclusive: 25.1 µM [inhibitor, partial curve] | –
Cc1ccc(CNC(=O)c2ccc(N3CCCC3=O)cc2)cc1 | – | inactive: 1.68%
Cc1cc(C)nc(N2CCC(C(=O)NCC3CCCCC3)CC2)n1 | – | inactive: -1.12%
Cc1ccc(C2=Nc3ccccc3NC(C)(c3ccc(C)o3)C2)o1 (centres undefined) | inconclusive: 22.4 µM [inhibitor, single point] | –
CCCN1CCc2[nH]c(=S)[nH]c(=O)c2C1 | – | inactive: 1.3%
c1cnn(Cc2cnc(N3CCOCC3)s2)c1 | – | inactive: 0.366%

Structure (SMILES) | Potency | activity change, negative = inhibition
COC(=O)CNC(=O)COC(=O)c1cc(SC)ccc1Cl | inconclusive: 31.6 µM [inhibitor, single point] | –
Cn1cnnc1SCC(=O)Nc1nc(-c2ccccc2)cs1 | – | inactive: 5.27%
COc1ccccc1NC(=O)N(Cc1ccco1)Cc1cc2ccc(C)c(C)c2[nH]c1=O | inconclusive: 39.8 µM [inhibitor, single point] | –
COc1ccc(/C=N/NC(=O)c2ccc(N(C)S(=O)(=O)c3ccccc3)cc2)cc1 | inconclusive: 35.5 µM [inhibitor, single point] | –
COC(=O)c1c(NC(=O)c2ccc(N(C)S(=O)(=O)c3ccc(C)cc3)cc2)sc2c1CCCC2 | inconclusive: 7.08 µM [inhibitor, full curve] | –
N#Cc1c(F)cccc1N1CCC(C#N)CC1 | inconclusive: 35.5 µM [inhibitor, partial curve] | –
CC[C@@]12CCCN3CCc4c(n(c5ccccc45)C(=O)C1)[C@H]32 | – | inactive: 0.854% [at 25.5 µM]
O=C(COC(=O)c1cc(NS(=O)(=O)c2cccs2)ccc1O)Nc1cc(Cl)ccc1Cl | inconclusive: 39.8 µM [inhibitor, single point] | –
COc1cc(NC(=O)CSc2ncnc3c2cnn3Cc2ccccc2)cc(OC)c1 | – | inactive: 4.85%
CC(C)(C)NC(=O)c1ccc2c(c1)C(=O)N(C1CCCCC1)C2=O | – | inactive: 8.49%
CC1=C(C(=O)OCC(C)C)C(c2ccsc2)C2=C(CCCC2=O)N1 (centres undefined) | inconclusive: 31.6 µM [inhibitor, partial curve] | –
CC1=NN(c2ccc(Cl)cc2)C(=O)C1C(c1ccccc1O)c1c(C)[nH]n(-c2ccc(Cl)cc2)c1=O (centres undefined) | inconclusive: 2.82 µM [inhibitor, full curve] | –
CC1CCN(S(=O)(=O)c2ccc(NC(=O)N3c4ccccc4Sc4ccccc43)cc2)CC1 | – | inactive: 6.61%
COc1ccccc1NC(=O)CN1CCCCC1 | – | inactive: 8.25%
CC(C)CC(=O)Nc1ccc2oc(-c3ccncc3)nc2c1 | inconclusive: 25.1 µM [inhibitor, partial curve] | –
N#Cc1c(NC(=O)c2ccc(Br)o2)n(-c2ccccc2)c2nc3ccccc3nc12 | inconclusive: 17.8 µM [inhibitor, partial curve] | –
O=C1C2C3C=CC(CNS(=O)(=O)c4ccccc4)(O3)C2C(=O)N1c1ccc(Cl)cc1 (centres undefined) | – | inactive: 6.97%
Cn1c(=O)c2c(nc(SCC(=O)O)n2Cc2cc3c(cc2Cl)OCO3)n(C)c1=O | inconclusive: 35.5 µM [inhibitor, single point] | –
N/C(=N\OC(=O)c1ccco1)c1cccc([N+](=O)[O-])c1 | inconclusive: 0.0355 µM [inhibitor, full curve, poor fit] | –
Cc1ccsc1-c1nc(CSCC(=O)N2CCN(c3ccccc3)CC2)c(C)o1 | inconclusive: 7.08 µM [inhibitor, single point] | –
Cn1c(NNC(=O)/C=C/c2ccc3c(c2)OCO3)cc(=O)n(C)c1=O | inconclusive: 31.6 µM [inhibitor, partial curve] | –
COc1ccccc1NS(=O)(=O)c1cc(NC(=O)Nc2cccc(C)c2)ccc1N1CCCCC1 | – | inactive: -8.06%
O=C(O)c1ccccc1C(=O)Nc1ccccc1 | – | inactive: -3.29%
O=[N+]([O-])c1cc(Cl)cc(/C=N\Nc2ccccn2)c1O | – | inactive: -6.09%
O=C(O)Cn1cc(/C=c2/sc3nc4ccccc4n3c2=O)c2ccccc21 | – | inactive: 3.96%

Structure (SMILES) | Potency | activity change, negative = inhibition
Cc1ccccc1-n1ncc2c(SCC(=O)N3c4ccccc4CC3C)ncnc21 (centres undefined) | – | inactive: -5.8%
CCC(=O)Nc1cccc(-c2cn3ccccc3n2)c1 | inconclusive: 28.2 µM [inhibitor, partial curve] | –
COC(=O)C1C(O)CCC2CN3CCc4c([nH]c5ccccc45)C3CC21 (centres undefined) | inconclusive: 31.6 µM [inhibitor, partial curve] | –
NC(=O)CC(NC(=O)c1ccccc1)c1ccc(NCc2ccccc2)c([N+](=O)[O-])c1 (centres undefined) | – | inactive: 1.95%
O=C(NCc1ccccc1Cl)C1CCCN(c2nc3ccsc3c(=O)s2)C1 (centres undefined) | inconclusive: 35.5 µM [inhibitor, single point] | –
COCCCNC(=O)C1CCC(CNS(=O)(=O)c2ccc(C)cc2)CC1 (centres undefined) | – | inactive: 10.8%
CC(=O)Nc1ccc2nc3c(=O)n(C)c(=O)n(C)c3nc2c1 | inconclusive: 28.2 µM [inhibitor, partial curve] | –
CCN(CCCn1c(=S)[nH]c2ccc(N3CCOCC3)cc2c1=O)c1ccccc1 | inconclusive: 31.6 µM [inhibitor, partial curve] | –
COc1cc(NC(=O)Cc2ccc(Cl)cc2)ccc1NC(=O)c1ccco1 | inconclusive: 28.2 µM [inhibitor, partial curve] | –
COC(=O)c1ccc(-n2c(C)ccc2-c2ccccc2)cc1 | inconclusive: 31.6 µM [inhibitor, single point] | –
CC(=O)NC(=S)NNC(=O)COc1ccc([N+](=O)[O-])cc1 | – | inactive: -1.42%
Cn1ncc2c(Nc3cccc(Cl)c3)nc(Nc3cccc(Cl)c3)nc21 | inconclusive: 35.5 µM [inhibitor, partial curve] | –
Cc1ccc(O)c(N=Cc2cccs2)c1 | inconclusive: 22.4 µM [inhibitor, partial curve] | –
c1ccc(-n2c(SCc3nc(-c4cccs4)no3)nnc2-c2ccco2)cc1 | inconclusive: 22.4 µM [inhibitor, single point] | –
CCOc1ccc2[nH]c3c(N4CCN(c5ccccn5)CC4)ncnc3c2c1 | inconclusive: 31.6 µM [inhibitor, partial curve] | –
O=C(CSc1n[nH]c(-c2cccs2)n1)N1CCN(S(=O)(=O)c2ccc3ccccc3c2)CC1 | inconclusive: 39.8 µM [inhibitor, single point] | –
C=CCOC(=O)[C@H](O)[C@@H](O)C(=O)OCC=C | – | inactive: -3.78%
O=c1/c(=C\c2cccc(O)c2)sc2nc(-c3ccccc3)c(-c3ccccc3)n12 | – | inactive: 12.4%
c1ccc(-c2nnc(SCc3nc4ccccc4[nH]3)n2Cc2ccco2)nc1 | – | inactive: 0.04%
CC(=O)Nc1ccc(S(=O)(=O)Nc2nc3ccc([N+](=O)[O-])cc3s2)cc1 | – | inactive: 7.57%
CCN(CC)C(=O)c1cc2c(=O)n3ccccc3nc2s1 | inconclusive: 25.1 µM [inhibitor, partial curve] | –
C[Si](C)(C/C=C/CC[C@H](O)C1=CCCCC1=O)c1ccccc1 | – | inactive: 5.66%
COc1ccc(OC)c2c1sc(=NC(=O)C1COc3ccccc3O1)n2C (centres undefined) | – | inactive: 2.35%
CC1(C)NC(=O)N(Cc2cc(=O)n3ccsc3n2)C1=O | inconclusive: 39.8 µM [inhibitor, single point] | –
